# Experimental data taken from PubChem BioAssay AID2147 (National Center for Advancing Translational Sciences (NCATS), 2009).
# Among all 230,000 compounds or so, about 3,600 (1.6%) were called active. A call without a number means that no potency is given here. Inconclusive results, whose numbers are uncertain, are shown with a selection of clear calls. Calls follow the shape of the dose curve; as a rule, active = well fitted inhibition curve with a large enough effect (not every such curve was filed as active); inconclusive = small, poorly fitted or top-dose-only effect, or another doubt; inactive = no such curve, though single readings can be large or run the other way. A potency beside an inconclusive call is a rough fit, not a confirmed value.
# Biological target: Lysine-specific demethylase 4E (Homo sapiens) (UniProt B2RXH2)
# Test: qHTS Assay for Inhibitors of Human Jumonji Domain Containing 2E (JMJD2E)
# Conditions: JMJD2E catalytic domain, FDH-coupled NADH fluorescence (FDH is formaldehyde dehydrogenase); series mostly up to 57.1 µM
# Also: nearly all actives have a fitted effect of over 50% in size.
# Potency is read from the fitted curve at half-maximal effect; tags tell the direction and shape of the fitted curve.
# Chain of UniProt B2RXH2 (B2RXH2 whole entry, looked up, the tested form may be a part): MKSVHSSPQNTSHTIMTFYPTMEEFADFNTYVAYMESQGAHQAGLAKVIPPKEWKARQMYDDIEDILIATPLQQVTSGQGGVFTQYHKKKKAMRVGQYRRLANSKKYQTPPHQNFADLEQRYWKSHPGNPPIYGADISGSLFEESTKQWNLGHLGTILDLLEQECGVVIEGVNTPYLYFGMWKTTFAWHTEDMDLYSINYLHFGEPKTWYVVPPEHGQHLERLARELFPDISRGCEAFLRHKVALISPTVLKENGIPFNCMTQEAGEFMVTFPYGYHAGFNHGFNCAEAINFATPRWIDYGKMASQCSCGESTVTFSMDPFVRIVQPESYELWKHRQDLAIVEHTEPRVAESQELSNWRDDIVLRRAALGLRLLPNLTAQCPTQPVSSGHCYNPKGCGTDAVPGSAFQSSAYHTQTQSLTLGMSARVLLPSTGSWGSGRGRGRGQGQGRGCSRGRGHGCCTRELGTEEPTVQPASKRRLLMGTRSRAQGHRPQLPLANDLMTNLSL
row,SMILES,Potency
1,CCn1c(O)c(N=NC(=O)CNc2ccc(C)cc2)c2ccccc21,inactive
2,CC(=O)NC(=S)Nc1cccc2ccc(C)nc12,inactive
3,Clc1cccc(-c2ccc(/C=N/n3cnnc3)o2)c1Cl,"inconclusive: 35.5 µM [inhibitor, single point]"
4,O=C(Nc1cc(=O)c2ccccc2o1)N1CCCCC1,"inconclusive: 25.1 µM [inhibitor, single point]"
5,Cc1nnc(NC(=O)c2cccc(S(=O)(=O)N3CCc4ccccc43)c2)s1,inactive
6,CNc1oc(-c2ccccc2Cl)nc1P(=O)(c1ccccc1)c1ccccc1,"inconclusive: 31.6 µM [inhibitor, single point]"
7,Cc1ccc(S(=O)(=O)c2nnn3c2nc(Nc2cccc(C)c2)c2ccccc23)cc1,inactive
8,CCc1nc(-c2cc3ccc(C)cc3[nH]c2=O)no1,"inconclusive: 7.94 µM [inhibitor, full curve]"
9,O=C(CSc1n[nH]c(-c2cccs2)n1)N1CCN(S(=O)(=O)c2ccccc2)CC1,inactive
10,Cc1ccc(/C=C2/NC(=O)N(Cc3ccc(Br)cc3)C2=O)o1,"inconclusive: 39.8 µM [inhibitor, single point]"
11,Cc1ccc2sc(NC(=O)c3ccc(N4C(=O)CCC4=O)cc3)nc2c1C,"inconclusive: 7.08 µM [inhibitor, single point]"
12,COc1ccc(N2CCN(C(=O)Cc3coc4cc(C)ccc34)CC2)cc1,inactive
13,Cc1ccc2c(c1)-c1cc(C)nn1C(c1sccc1C)N2 (stereo not given),"inconclusive: 31.6 µM [inhibitor, partial curve]"
14,O=C(/C=C/c1ccc(O)cc1)c1cccs1,"inconclusive: 39.8 µM [inhibitor, single point]"
15,CCCC(c1nnnn1Cc1ccc2c(c1)OCO2)N1CCC(C(N)=O)CC1 (stereo not given),"inconclusive: 0.891 µM [inhibitor, full curve, poor fit]"
16,Oc1c(C=Nc2cccc3cccnc23)sc2ccccc12,"inconclusive: 39.8 µM [inhibitor, single point]"
17,CCOC(=O)/C(=C/c1ccc(N2CCC(c3ccccc3)=N2)cc1)C(C)=O,inactive
18,COC(=O)/C=C(\Oc1ccccc1)C1(O)CCCCC1,"inconclusive: 28.2 µM [inhibitor, single point]"
19,O=C(COc1ccccc1Cl)NC(=S)Nc1ccc(CN2CCOCC2)cc1,inactive
20,CCOC(=O)CNC(=O)Nc1nnc(-c2ccc(OCC)cc2)o1,"inconclusive: 22.4 µM [inhibitor, partial curve]"
21,Cc1ccc(S(=O)(=O)Nc2ccccc2-c2ccccc2NS(=O)(=O)c2ccc(C)cc2)cc1,inactive
22,O=C(Nc1ccc(OC(F)(F)F)cc1)C1CCCN(S(=O)(=O)c2cccnc2)C1 (stereo not given),inactive
23,COc1ccc(CCNC(=O)Cn2ccc3c(OC)cccc3c2=O)cc1OC,inactive
24,Cc1c(Cc2ccccc2)c(NCCN(C)C)n2c(nc3ccccc32)c1C#N,"inconclusive: 28.2 µM [inhibitor, single point]"
25,CN(CC(=O)Nc1ccc(N2CCOCC2)cc1)CC(=O)Nc1ccc(N2CCOCC2)cc1,inactive

row,SMILES,Potency
1,CCCC(=O)N1c2ccc(-c3csc(N)n3)cc2CC1C (stereo not given),inactive
2,CN1OC2C(=O)N(c3ccccc3)C(=O)C2C1c1ccc(F)cc1 (stereo not given),inactive
3,O=C(NCc1cccnc1)/C(=C/c1ccc(-c2cccc(C(F)(F)F)c2)o1)NC(=O)c1ccccc1,"inconclusive: 39.8 µM [inhibitor, single point]"
4,O=C(CN1CCCCCC1)NN(Cc1ccccc1)c1ccccc1,"inconclusive: 22.4 µM [inhibitor, single point]"
5,Cn1c(=O)nc2n(Cc3ccccc3)c3cccc(Cl)c3cc-2c1=O,"inconclusive: 28.2 µM [inhibitor, partial curve]"
6,Nc1cccnc1Sc1ccc(Cl)cc1,"inconclusive: 39.8 µM [inhibitor, single point]"
7,NC(=O)c1c(NC(=O)C2CCCO2)sc2c1CCCC2 (stereo not given),inactive
8,CC(=O)N1Cc2ccccc2C(C)CC12CCCC2 (stereo not given),inactive
9,CCOC(=O)C1=CN(c2cccc(F)c2)C=C(C(=O)OCC)C1c1cc(OC)c(O)c([N+](=O)[O-])c1,inactive
10,C(=N\N1CCN(Cc2cccc3ccccc23)CC1)/c1cccs1,inactive
11,COc1ccc(NC(=O)c2cn3c(nc4ccccc43)c(C#N)c2C)cc1,"inconclusive: 22.4 µM [inhibitor, partial curve]"
12,COc1ccc(/C=C(/NC(=O)c2ccccc2)C(=O)NC2CCS(=O)(=O)C2)cc1 (stereo not given),inactive
13,COC(=O)/C=c1\[nH]c2nnc(C)n2c1=O,"inconclusive: 28.2 µM [inhibitor, partial curve]"
14,CCOC(=O)c1cc2c(=O)n3ccccc3nc2n(Cc2ccco2)c1=NC(=O)c1ccc(OC)cc1,"inconclusive: 25.1 µM [inhibitor, partial curve]"
15,COC(=O)C1CCN(c2nc3ccccc3nc2C(C#N)C(=O)OCC(C)C)CC1 (stereo not given),inactive
16,CCOc1cc(/C=N/NC(=O)c2ccc(CN3CCOCC3)cc2)ccc1OC,"inconclusive: 39.8 µM [inhibitor, single point]"
17,CCOc1ccc(S(=O)(=O)Nc2nc3ccccc3nc2Nc2ccc(N3CCOCC3)cc2)cc1,"inconclusive: 39.8 µM [inhibitor, single point]"
18,COc1ccc(CN2C(=S)NC(C)(C)CC2(C)O)cc1 (stereo not given),inactive
19,Cc1nc2c(-c3ccccc3)c(C)[nH]n2c(=O)c1Cl,"inconclusive: 28.2 µM [inhibitor, partial curve]"
20,CCCCNc1ncnc2c1cnn2-c1ccc(Cl)cc1,"inconclusive: 28.2 µM [inhibitor, single point]"
21,COc1cccc(C2Nc3c(F)cc(Br)cc3C3C=CCC32)c1OC (stereo not given),inactive
22,CC12CCC(C(=O)N(CC(O)CN3CCCCCC3)C1=O)C2(C)C (stereo not given),inactive
23,N#CC1=C(SCc2ccccc2Cl)NC(=O)C(C(N)=O)C1 (stereo not given),inactive
24,CCCCNC(=O)c1ccc2c(c1)ncn2C1CCCC1,inactive
25,CCC1=C2CC[C@H]3C(=O)N(C)C(=O)[C@H]3[C@H]2[C@@]2(C)C(=O)N(CC(=O)OC)C(=O)N2C1=O,inactive
